Assay results published in the supplement of paper PMC11417369.
± gives the standard deviation of the averaged measurements. The list shows a part of the results.

Tested on: PfAP2-LT AP2 domain (GST-tagged)
Assay: gcPBM binding intensity (ln(normalized median fluorescence intensity)); higher = stronger DNA binding
Procedure, shortened: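 GST-tagged P. falciparum DNA-binding domains, expressed in E. coli (about 25 μg on average), were applied for 1 h to an Agilent 4 × 180k array of primer-extended double-stranded 36-bp intergenic genomic probes plus negative controls. The binding buffer was 1× PBS with 1% milk, 0.2 mg/ml BSA, 0.5% salmon testes DNA and 0.03% Triton X-100. Bound protein was detected with Alexa488 anti-GST antibody and scanned at 488 nm. Binding intensity is the highest Masliner-normalised natural-log median intensity across replicate spots of either probe orientation.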

| Sequence | gcPBM binding intensity (ln) |
| --- | --- |
| TGTATAAACTTTACGTGTACATGAATAATCTATAAT [XGTACX_site3801] | 8.65 ± 0.38 |
| TTGTACAAAAATAATGCACACTATATCAAGTTTTTT [CACACA_site5898] | 8.82 ± 0.32 |
| AAAATGGAACTAGGAATAATATAAGAAGATAAAAGG [XGTACX_negctrl_site347] | 8.79 ± 0.48 |
| TAATCATTTTAGCTTACACACAAAATTTTGTTATAA [CACACA_site2939] | 8.9 ± 0.41 |
| AAAATAATTTTATAAGTGCAAAATAGCTTATTTATA | 8.46 ± 0.49 |
| TATATATGTGTATAGAGTACACGTTTTTTTTAATAT [XGTACX_site3128] | 8.68 ± 0.46 |
| AAAAACCTGAACTGTGCATGTCATACTTTTACTTTT [TGCATGCA_site73] | 8.99 ± 0.4 |
| TATACGTATTACAGAGTGCAATAAACAGTATATATT | 9.04 ± 0.33 |
| TATAAGAATGACAAGTGTACATATCAAATATATTAG [XGTACX_site7113] | 8.83 ± 0.4 |
| TATTTTTTATATTTATTTATTTAAAGGAGCTTTTCT [GTGCAC_negctrl_site293] | 8.34 ± 0.54 |
| TATACTAAAAAATACACATGCACATACAATATATAT [TGCATGCA_site1016] | 9.05 ± 0.4 |
| AATATAAATTAATTTACACACTAAAAAATATTTATA [CACACA_site7728] | 8.59 ± 0.55 |
| ACATACTTTAATATATGTACATAAGAAAAAAAAAAA [XGTACX_site2991] | 8.81 ± 0.55 |
| TGTACATATATATATATAATAATAGTTATGTTTATT [CACACA_negctrl_site1474] | 8.85 ± 0.32 |
| TTTTTTTATAGCTAAACACACATAAGAATATATGTT [CACACA_site1099] | 8.76 ± 0.4 |
| ATTATTACACAACGTTGTACATTTCAATATTTTTAT [XGTACX_site5096] | 9.12 ± 0.49 |
| AAAATAATATATAATTGTACTTTTTTTTTATATATA [XGTACX_site6093] | 8.48 ± 0.38 |
| TCCTCTTCAATATATATATATTATAAATAAATAAAT [CACACA_negctrl_site1756] | 8.32 ± 0.29 |
| TTTCTTTTTTTTTAATGTACTTTTTTTATAAAAGGT [XGTACX_site5688] | 8.28 ± 0.52 |
| TTTTTTCTTAAAATTTGTACATAGTGCAATTTTTTT [XGTACX_site5509] | 8.41 ± 0.59 |
| TTTGAATTTTTTAACACACACATGTGTGGATATATA [CACACA_site6872] | 9.17 ± 0.35 |
| TATTAACACTTTATAGAAACAAAAAAATAAGCAAAA [XGTACX_negctrl_site295] | 8.51 ± 0.52 |
| AAGTTGTATATTGATTGTACTTGTTTAGGGTTATAG [XGTACX_site2953] | 8.87 ± 0.45 |

| Sequence | gcPBM binding intensity (ln) |
| --- | --- |
| ATATATATAATAAACACACACATATACATATATGTA [CACACA_site3462] | 9.3 ± 0.31 |
| TATATATATATAATGTGTACACAAATATATATTATA [XGTACX_site8786] | 8.8 ± 0.37 |
| AGGTAAAATATACATTGTACATATAATTAATTTATT [XGTACX_site626] | 8.77 ± 0.52 |
| TGGGTAATACATAATACACACATGTATATGTCGCAT [CACACA_site1125] | 9.24 ± 0.4 |
| AGTATATATACACAAGGGGAATACATATACAAAATT [TGCATGCA_negctrl_site244] | 9.04 ± 0.46 |
| AAATTTATATAATATTGTACATTAAAAATTATATAT [XGTACX_site8009] | 8.45 ± 0.51 |
| TATGTATAAATATATGCACACATATATATATTTATA [CACACA_site9150] | 8.85 ± 0.38 |
| TTTTTAAAAAAGATAAGCGAAAGAATTAATTTTTAA [GTGCAC_negctrl_site197] | 8.13 ± 0.52 |
| TAAATTAATAAAAAGTGTACATAATATACATATATA [XGTACX_site8604] | 8.79 ± 0.38 |
| TACAATACCGTACAGGTGCAACTAGCCAAAAAAAAG | 9.06 ± 0.47 |
| CGTATGACATAATATTGTACTTTTGATATACATCAT [XGTACX_site7366] | 8.81 ± 0.41 |
| ATAATTAAAAAAGGAATATATATATATATATATATA [GTGCAC_negctrl_site343] | 9.76 ± 0.32 |
| TTTAATAATATTTAGGTGCTATATATTATATGTATA | 8.62 ± 0.39 |
| AAACAAAAAAGAAACACACACTAATTAAATTTTCTT [CACACA_site4746] | 9.1 ± 0.41 |
| CTCAATATATTTGATTTACACACTTACAATGTATAT [CACACA_site8982] | 9.04 ± 0.33 |
| AAGTGGCATATAAGTAAAAAATATATACAAGTATAT [GTGCAC_negctrl_site427] | 8.81 ± 0.51 |
| TATTAAAGATACTCGGTATAAATAAATTTTAATGTG [XGTACX_negctrl_site239] | 8.54 ± 0.52 |
| ACAACATGCACACGCACACACAAAAAAAGCATGCAT [CACACA_site6185] | 9.67 ± 0.3 |
| ATGCTTATTATTTATTGTACTGAATAAATATATCTG [XGTACX_site4483] | 8.86 ± 0.5 |
| TTATTTCTACCTTTTTGTACACATTATTATGAAACC [XGTACX_site5325] | 8.94 ± 0.51 |
| TATAAAAAATATAATTGTACATAAAGGTTAAAATGT [XGTACX_site6138] | 8.84 ± 0.38 |
| ATAAATCATAAGGAGAGTACATAAATAAAATAATCA [XGTACX_site8825] | 8.88 ± 0.5 |
| TATATATGGAAAAGGTGTACATTCAATATATATATA [XGTACX_site3167] | 8.86 ± 0.33 |

| Sequence | gcPBM binding intensity (ln) |
| --- | --- |
| CTATAATATAGGTATACACACATATTATAGAATATT [CACACA_site7696] | 8.98 ± 0.4 |
| TATGTCAAAAAATAATGTACAAAAAAATTAACATAA [XGTACX_site5463] | 8.65 ± 0.45 |
| TGAGTATTTTTTTAATGTACTTATATTAAAAGGAAA [XGTACX_site6286] | 8.13 ± 0.38 |
| TATATTTTTTTTCTAGTGCATATTATTAATTAAGTT | 8.54 ± 0.47 |
| AAAATATTATTTTGTTGTACATATAAAATTTTAAGC [XGTACX_site1866] | 8.49 ± 0.57 |
| TACAAAATAAGACATGCATGTTATACATATATATTT [TGCATGCA_site321] | 9.14 ± 0.41 |
| TTTATTTTGTAGTGTACACATATATATATATATATA [CACACA_site5843] | 9.53 ± 0.23 |
| TATAATATATGTATATGTACTTATGTTGAGAAACAT [XGTACX_site2117] | 8.6 ± 0.38 |
| GAATAATATATATGTTCACACATGGTCTTTATTATA [CACACA_site5457] | 8.89 ± 0.4 |
| TACCTAATATGTTATACACACATTATGAGTACATAT [CACACA_site2466] | 9.13 ± 0.35 |
| GTTATATAAACATATGCATGTGAAGTGTTTATTAAT [TGCATGCA_site183] | 8.98 ± 0.43 |
| TAAGTTTTGTTTTTTTGTACTCATTCATACTATCAT [XGTACX_site3638] | 8.86 ± 0.48 |
| CTTATTTACTATTTTTCACACATTACAGATAAACAA [CACACA_site6095] | 8.6 ± 0.41 |
| TAAATATATATATATAGTACAATATAATTATGATAT [XGTACX_site258] | 8.79 ± 0.38 |
| TCATTGAAAAAAATCTGTACTGACTATATAGTTGCA [XGTACX_site1566] | 8.54 ± 0.37 |
| TATATATATATAATTGCACACATCAAGTTTGATGTT [CACACA_site1288] | 9.38 ± 0.29 |
| AAATGTACAGGACGCACACACATATTTATATTTATA [CACACA_site7689] | 9.53 ± 0.3 |
| GTTGTATACAATAATGTGCACATATTAATTTGAACT | 9.06 ± 0.35 |
| TTTTTTTTTCCTTTTTTTTAAATATTAAAAATGGGA [TGCATGCA_negctrl_site494] | 8.03 ± 0.46 |
| TATATATATATAAGTAGTACAATAATATATTATTTT [XGTACX_site6450] | 8.74 ± 0.42 |
| TTTTACATCATATATAGTACATATATTATACATATA [XGTACX_site8590] | 8.76 ± 0.43 |
| TTTTCTTAATATTTCGTTTTACATAAACCTTTTAAA [CACACA_negctrl_site660] | 8.43 ± 0.52 |
| AATATAATATTATATAGTACATATTTCTTTTATTTT [XGTACX_site22] | 8.6 ± 0.42 |

| Sequence | gcPBM binding intensity (ln) |
| --- | --- |
| TCTTGATACAAACATTTAAATAAATAAATAAAAAAA [GTGCAC_negctrl_site41] | 8.41 ± 0.49 |
| TAATATTATATTTATAGTACATATAATATATATATA [XGTACX_site2964] | 8.47 ± 0.47 |
| TGTTGTGATATATTAAAATCGTCCCTTATAATTTTA [GTGCAC_negctrl_site595] | 8.59 ± 0.34 |
| AAAATACACGCATACACACACACACCGACACATATA [CACACA_site4523] | 10.4 ± 0.28 |
| AAACACACACACAAATGTACATATATATATATATTT [XGTACX_site5090] | 9.79 ± 0.26 |
| GAACACTAATAATGTTGTACACGTAATTATATATTT [XGTACX_site777] | 8.96 ± 0.28 |
| ATATATTTTCATTTTACACACAAATAAAGATAATTT [CACACA_site2996] | 8.79 ± 0.43 |
| AAAATAAATAAAAAAAGTACATATATAATTTATAAA [XGTACX_site2411] | 8.66 ± 0.46 |
| AATGTGCAAACAAACTGTACTTTTTTTTTTTTTTTT [XGTACX_site928] | 8.86 ± 0.26 |
| AGATTTATTCATTCATGTACTTATTTATTTTATTTT [XGTACX_site6702] | 8.91 ± 0.44 |
| ATAAAAATATTTATTACACACATAAGCAAAAAAAAA [CACACA_site3484] | 8.86 ± 0.43 |
| TATAATGATGATGATAGTACGTATGAGTAAGAAAAA [XGTACX_site31] | 8.99 ± 0.54 |
| TATTTTTATTTTTAAACCATATATATATATATATAT [CACACA_negctrl_site1560] | 9.44 ± 0.16 |
| TATAGTTTCATTCTTTGTACATATATATTATTATTA [XGTACX_site8527] | 8.83 ± 0.44 |
| TTTGTATTACGTTTGTGTACATATACAATGTGTTTT [XGTACX_site7708] | 9.04 ± 0.48 |
| CATACATATATACATACACACACATATAACCAATGT [CACACA_site8679] | 9.64 ± 0.3 |
| TTTATTTATTTATGGACACACATACAAATCTTCCAG [CACACA_site4676] | 8.76 ± 0.47 |
| TCCATGCATTGACACACACACAAAAAAAAATTCTTT [CACACA_site7847] | 9.21 ± 0.45 |
| AATAATAATGCTTTAACTTTGTTGTTATTTAGAATA [CACACA_negctrl_site1144] | 8.45 ± 0.45 |
| TATAAATAAAAGTGTACACACATTAAAATCAAACGT [CACACA_site5316] | 9.44 ± 0.43 |
